{
  "source": "PubChem BioAssay AID1461",
  "about": "(National Center for Advancing Translational Sciences (NCATS), 2008)",
  "note": "Among all 220,000 compounds or so, about 2,300 (1%) were called active. The inconclusive results got no clear call from the source; some entries with a clear call stand among them for comparison. Calls follow the shape of the dose curve; as a rule, active = well fitted inhibition curve with a large enough effect; inconclusive = small, poorly fitted or top-dose-only effect, or effect the other way; inactive = no such curve, though single readings can be large or run the other way. Potencies of inconclusive entries are left out as doubtful fits. % is scaled to controls: 0 for no effect and ±100 for the full control effect; potency is read from the fitted curve at half-maximal effect; tags tell the direction and shape of the fitted curve.",
  "data": [
    {"molecular_target": "Neuropeptide S receptor (Homo sapiens) (UniProt Q6W5P4)", "sequence (Q6W5P4 whole entry, looked up)": "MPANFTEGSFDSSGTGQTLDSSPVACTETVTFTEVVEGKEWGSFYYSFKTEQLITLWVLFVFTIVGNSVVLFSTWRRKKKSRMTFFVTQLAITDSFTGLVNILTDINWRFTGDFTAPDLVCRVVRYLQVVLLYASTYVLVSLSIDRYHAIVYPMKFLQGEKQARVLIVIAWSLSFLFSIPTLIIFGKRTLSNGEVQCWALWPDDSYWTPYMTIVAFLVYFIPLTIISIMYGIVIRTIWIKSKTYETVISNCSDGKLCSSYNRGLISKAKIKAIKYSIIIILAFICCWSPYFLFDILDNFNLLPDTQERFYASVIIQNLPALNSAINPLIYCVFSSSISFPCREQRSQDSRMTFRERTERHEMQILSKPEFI", "assay": "qHTS Assay for Antagonists of the Neuropeptide S Receptor: cAMP Signal Transduction; also: nearly all actives have a fitted effect of over 50% in size", "conditions": "CHO-NPSR cells, cAMP TR-FRET, antagonist mode; activity change, negative = inhibition: at 38.3 µM (top of the series) unless noted", "values": [
      {"molecule": "O=C(Nc1ccc(Oc2cccc(C(F)(F)F)c2)nc1)c1cccs1", "Potency": "inconclusive [activator, single point]"},
      {"molecule": "CC(C)(C)C(=O)COC(=O)CNC(=O)c1ccc(Oc2ccccc2)cc1", "Potency": "inconclusive [inhibitor, single point]"},
      {"molecule": "COc1ccc(NC(=O)CSc2nc3ccccc3c3nc4ccccc4n23)cc1", "activity change, negative = inhibition": "inactive: 7.15%"},
      {"molecule": "COC(=O)c1c(NC(=O)CSc2nnc(-c3ccco3)n2C)sc(C)c1C", "Potency": "inconclusive [inhibitor, single point]"},
      {"molecule": "COc1ccccc1N=c1sc2ccccc2n1C", "Potency": "inconclusive [inhibitor, single point]"},
      {"molecule": "CC(C)OP(=O)(OC(C)C)/C(C=O)=N\\Nc1ccc([N+](=O)[O-])cc1", "Potency": "inconclusive [inhibitor, single point]"},
      {"molecule": "COc1ccc(Cl)cc1NC(=S)NCCSc1ccc(C)cc1", "Potency": "inconclusive [inhibitor, single point]"},
      {"molecule": "CCn1c(=S)[nH]c2scc(-c3cccs3)c2c1=O", "Potency": "active: 10 µM"},
      {"molecule": "COc1ccc(Cl)cc1N(CC(=O)NC(C)(C)C)S(=O)(=O)c1ccc(C)c([N+](=O)[O-])c1", "Potency": "inconclusive [inhibitor, single point]"},
      {"molecule": "Cc1ccccc1NC(=O)CSc1nnc(-c2ccoc2C)n1CCc1ccccc1", "Potency": "inconclusive [inhibitor, partial curve, poor fit]"},
      {"molecule": "Cc1ccc(-c2cc(-c3ccc(C)o3)nc(N)c2C#N)cc1", "Potency": "inconclusive [inhibitor, partial curve]"},
      {"molecule": "c1ccc(-c2cc(N3CCOCC3)nc(-c3ccccc3)n2)cc1", "Potency": "inconclusive [inhibitor, partial curve, poor fit]"},
      {"molecule": "CCOC(=O)c1sc(N(Cc2ccccc2)C(=O)COC(=O)c2ccc(O)cc2)nc1C", "Potency": "inconclusive [inhibitor, single point]"},
      {"molecule": "O=C(Nc1ccccc1)Nc1ccc(Cl)c([N+](=O)[O-])c1", "activity change, negative = inhibition": "inactive: -31%"},
      {"molecule": "COc1ccc(Cn2c(=S)[nH]c3ccsc3c2=O)cc1", "activity change, negative = inhibition": "inactive: -6.88%"},
      {"molecule": "O=C(c1ccc(C#CC2(O)CCCCC2)cc1)N1CCN(C(c2ccccc2)c2ccccc2)CC1", "Potency": "inconclusive [inhibitor, single point]"},
      {"molecule": "Cc1nc(SCCO)c2oc3ccccc3c2n1", "activity change, negative = inhibition": "inactive: -5.32% [at 46.1 µM]"},
      {"molecule": "COc1ccc2c(COC(=O)c3n[nH]c4ccccc34)cc(=O)oc2c1", "Potency": "inconclusive [inhibitor, partial curve]"},
      {"molecule": "COc1ccc(-c2[nH]ncc2-c2cnc(C)s2)c(O)c1", "Potency": "inconclusive [inhibitor, single point]"},
      {"molecule": "COc1ccc(OCCn2cc(/C=N/NC(=O)c3ccncc3)c3ccccc32)cc1", "activity change, negative = inhibition": "inactive: 12%"},
      {"molecule": "Cc1cc(C(F)F)n2ncc(C(=O)N3CCC(C(N)=O)CC3)c2n1", "activity change, negative = inhibition": "inactive: 7.32% [at 46.1 µM]"},
      {"molecule": "Cc1ccc(-n2c(-c3ccc(Cl)cc3)c[n+]3c2CCC3)cc1", "activity change, negative = inhibition": "inactive: 11.5%"},
      {"molecule": "CCOC(=O)N1CCN(c2nc(-c3ccc(Cl)cc3)cs2)CC1", "Potency": "inconclusive [inhibitor, full curve, poor fit]"},
      {"molecule": "COc1cc(CNCCc2ccccc2)cc(Br)c1OCC(=O)Nc1ccccc1C", "Potency": "inconclusive [inhibitor, single point]"},
      {"molecule": "Cc1ccc(/C(O)=C2/C(=O)C(=O)N(Cc3cccnc3)C2c2ccccn2)cc1", "note": "(configuration not stated)", "Potency": "inconclusive [inhibitor, single point]"},
      {"molecule": "CCc1ccc(C2=NN(c3ccc(S(N)(=O)=O)cc3)C(c3ccc(F)cc3)C2)cc1", "note": "(configuration not stated)", "Potency": "active: 10 µM"},
      {"molecule": "COc1ccc(C2c3ccc4ccccc4c3Oc3ncn(CCCO)c(=N)c32)cc1OC", "note": "(configuration not stated)", "Potency": "inconclusive [inhibitor, single point]"},
      {"molecule": "CCCC(O)(c1ccc(Cl)cc1)C(CN1CCOCC1)c1ccccc1", "note": "(configuration not stated)", "Potency": "inconclusive [inhibitor, single point]"},
      {"molecule": "CCc1ccccc1NC(=O)/C(=C/c1ccco1)c1ccccc1", "Potency": "inconclusive [inhibitor, single point]"},
      {"molecule": "COc1ccc(C2c3ccc4ccccc4c3Oc3ncn(CCN4CCOCC4)c(=N)c32)cc1", "note": "(configuration not stated)", "Potency": "inconclusive [inhibitor, single point]"},
      {"molecule": "OCCN(CCO)c1ccc(C(c2ccc(Cl)cc2)c2ccc(N(CCO)CCO)cc2Cl)c(Cl)c1", "Potency": "inconclusive [inhibitor, single point]"},
      {"molecule": "CN1CCN(C(=O)C2=C[C@H](c3coc4ccccc4c3=O)C[C@H](OCc3ccc(CO)cc3)O2)CC1", "Potency": "inconclusive [activator, partial curve]"},
      {"molecule": "O=C(N=Nc1c(O)[nH]c2ccc([N+](=O)[O-])cc12)c1ccccc1Cl", "Potency": "inconclusive [activator, partial curve]"},
      {"molecule": "N#C/C(=C\\C=C\\c1ccccc1[N+](=O)[O-])C(=O)NC1CCCCC1", "Potency": "inconclusive [inhibitor, single point]"},
      {"molecule": "Cc1ccccc1NC(=O)CSc1nc(Nc2ccccc2)nc(N2CCOCC2)n1", "Potency": "inconclusive [inhibitor, single point]"},
      {"molecule": "Cc1ccc(-c2ccc(C(=O)O)o2)cc1Cl", "activity change, negative = inhibition": "inactive: -28.2%"},
      {"molecule": "COc1cc(OC)cc(-c2nc3ccccc3c(=O)n2OC(=O)c2ccccc2C)c1", "Potency": "inconclusive [inhibitor, single point]"},
      {"molecule": "O=C(/C=C/Sc1ncn[nH]1)c1ccc(Cl)cc1", "Potency": "inconclusive [inhibitor, single point]"},
      {"molecule": "N#Cc1ccc(-c2cccnc2)nc1SCc1ccc(Cl)c(Cl)c1", "Potency": "inconclusive [inhibitor, single point]"},
      {"molecule": "Nc1ccc(-c2cnc[nH]2)cc1[N+](=O)[O-]", "Potency": "inconclusive [inhibitor, single point]"},
      {"molecule": "CC(=O)O[C@H]1CC2(C)[C@@H](C[C@@H](O)[C@H]3[C@@]4(C)CC[C@@H](O)[C@@H](C)[C@@H]4CC[C@@]32C)C1=C(CCC=C(C)C)C(=O)O", "note": "(some centres not stated)", "activity change, negative = inhibition": "inactive: -17.8% [at 46.1 µM]"},
      {"molecule": "COC(=O)c1ccc(C2C(Oc3ccccc3C)C(=O)N2CCc2ccc(OC)c(OC)c2)cc1", "note": "(configuration not stated)", "Potency": "inconclusive [inhibitor, partial curve]"}
    ]}
  ]
}
